Paper PMC4336329 (PLoS ONE, 2015)
In all, about 310,000 compounds went through this assay and about 2,200 (0.71%) showed an effect of 50% or more. Effects have a minus sign here. This is one part of the list.

molecular target: human ether-à-go-go-related gene (hERG) potassium channel (human, UniProt Q12809); assay: primary screen, population patch clamp on CHO cells stably expressing hERG
Sequence (Q12809 whole entry, looked up): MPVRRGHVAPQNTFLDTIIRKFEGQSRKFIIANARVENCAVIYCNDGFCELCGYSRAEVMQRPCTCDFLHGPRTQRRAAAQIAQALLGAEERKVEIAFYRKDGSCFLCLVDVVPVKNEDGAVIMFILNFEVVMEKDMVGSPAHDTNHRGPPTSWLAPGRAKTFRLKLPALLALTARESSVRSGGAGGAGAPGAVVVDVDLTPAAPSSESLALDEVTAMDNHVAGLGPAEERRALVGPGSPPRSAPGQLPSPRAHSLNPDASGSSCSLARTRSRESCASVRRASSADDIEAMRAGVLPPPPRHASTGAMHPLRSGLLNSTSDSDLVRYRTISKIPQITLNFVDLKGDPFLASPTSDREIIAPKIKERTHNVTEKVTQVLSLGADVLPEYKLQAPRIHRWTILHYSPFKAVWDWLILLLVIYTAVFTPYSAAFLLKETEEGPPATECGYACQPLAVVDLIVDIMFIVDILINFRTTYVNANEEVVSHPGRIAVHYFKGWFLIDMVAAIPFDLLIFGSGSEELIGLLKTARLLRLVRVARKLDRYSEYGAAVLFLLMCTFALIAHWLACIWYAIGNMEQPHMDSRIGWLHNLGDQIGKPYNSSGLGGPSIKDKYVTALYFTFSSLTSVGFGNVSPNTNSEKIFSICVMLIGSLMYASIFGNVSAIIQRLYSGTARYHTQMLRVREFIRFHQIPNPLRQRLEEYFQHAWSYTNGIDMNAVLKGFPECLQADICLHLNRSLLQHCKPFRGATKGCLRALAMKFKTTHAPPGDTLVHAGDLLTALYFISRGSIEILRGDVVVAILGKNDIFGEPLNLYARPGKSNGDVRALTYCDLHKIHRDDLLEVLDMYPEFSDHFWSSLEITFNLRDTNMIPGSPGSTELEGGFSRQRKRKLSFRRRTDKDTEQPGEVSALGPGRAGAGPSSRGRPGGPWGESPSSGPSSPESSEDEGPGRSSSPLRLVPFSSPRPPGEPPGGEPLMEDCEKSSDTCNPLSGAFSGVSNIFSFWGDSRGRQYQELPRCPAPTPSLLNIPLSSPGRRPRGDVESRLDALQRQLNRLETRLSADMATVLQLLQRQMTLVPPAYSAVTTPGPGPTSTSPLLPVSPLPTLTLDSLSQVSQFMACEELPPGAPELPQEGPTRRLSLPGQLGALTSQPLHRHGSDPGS

Row | SMILES | hERG current change (%, negative = inhibition) at 1uM
1 | O=C(Cc1ccc(S(=O)(=O)N2CCOCC2)s1)NCC(=O)Nc1ccccc1Br | 6.56%
2 | O=C(CN1C(=O)NC(Cc2ccccc2)C1=O)Nc1ccccc1 (stereo not drawn) | 4.6%
3 | COc1ccc(N(CC(=O)NCCOc2ccccc2)S(=O)(=O)c2ccc(C)cc2)cc1 | -4.35%
4 | Cc1ccc(CCNC(=O)C2CC(c3cccc(F)c3)=NO2)cc1 (stereo not drawn) | 17.2%
5 | COC(=O)c1c(NC(=O)CN2CCC(C(N)=O)CC2)c2c(C)cccc2n1C | 23.3%
6 | CCc1ccc(C2CC(c3ccco3)=NN2S(C)(=O)=O)cc1 (stereo not drawn) | 15.3%
7 | CN(C)C(CNC(=O)c1ccc2c(=O)n(-c3ccccc3F)c(=S)[nH]c2c1)Cc1ccccc1 (stereo not drawn) | 7.71%
8 | O=C1/C(=C/c2ccccc2Cl)N2CCC1CC2 | 10.3%
9 | Cc1ccnc(NS(=O)(=O)c2ccc(NC(=O)C34CC5CC(C)(CC(C)(C5)C3)C4)cc2)n1 | -8.01%
10 | Cc1cc(C)nc(SCC(=O)Nc2ncc(Cc3ccc(Cl)c(Cl)c3)s2)n1 | 4.85%
11 | Cc1ccc(N2CC(=O)N(NC(=O)c3sc4nc(C)cc(C)c4c3N)CC2=O)cc1 | 14.7%
12 | Cc1cc(C)[n+](CCCC[n+]2c(C)cc(C)cc2C)c(C)c1.[O-][Cl+3]([O-])([O-])[O-] | -0.768%
13 | O=C(N/C(=C\c1cccc([N+](=O)[O-])c1)C(=O)N(CCO)CCO)c1ccco1 | 15%
14 | Cc1ccc(CCNC(=O)C2CCCN(C(=O)c3cc4sccc4n3C)C2)cc1 (stereo not drawn) | -1.74%
15 | CC(C)OC(=O)C(C#N)c1nc2ccccc2nc1N1CCN(Cc2ccccc2)CC1 (stereo not drawn) | 6.06%
16 | Cc1cccc(C)c1NC(=S)N(C)CCc1ccccn1 | 1.67%
17 | COc1cc2c(c(OC)c1OC)CCc1cnoc1-2 | 8.26%
18 | COC(=O)c1sc2ccccc2c1-n1cccc1C(=O)C(=O)Nc1ccc(Cl)cc1 | -2%
19 | C/C(CC(=O)NC12CC3CC(CC(C3)C1)C2)=N\NC(=O)Cc1cccs1 | 4.16%
20 | COc1ccc(NC(=O)c2cc(C(C)C)on2)cc1OC | 8.12%
21 | CC1CCCC(C)N1C(=O)c1cc(-c2ccco2)on1 (stereo not drawn) | 10.2%
22 | Cc1ccc(-c2nc(N)n(S(C)(=O)=O)n2)cc1 | 9.04%

Row | SMILES | hERG current change (%, negative = inhibition) at 1uM
23 | CCNC(=S)N/N=C/c1cc(C)n(-c2ccc(Cl)cc2)c1C | 12.4%
24 | O=C(CN1C(=O)NC(c2ccccc2)(c2ccccc2)C1=O)NC1CCCCC1 | 2.49%
25 | CCc1nnc(NS(=O)(=O)c2ccc(N3C(=O)C4CC=C(Cl)CC4C3=O)cc2)s1 (stereo not drawn) | 12.5%
26 | CCC(C)(C(=O)NC1CCCCC1)N(Cc1ccco1)C(=O)CNC(=O)c1ccccc1 (stereo not drawn) | 5.02%
27 | Cn1c(COc2ccccc2)nnc1SCC(=O)Nc1ccc(N2CCOCC2)c(Cl)c1 | -11.4%
28 | CC(=O)C1=C(C)N(Cc2ccccc2)C(=O)N[C@H]1c1cccc(F)c1 | 2.39%
29 | COc1ccc(N2CC(C(=O)Nc3ccccc3N3CCCC3)CC2=O)c(OC)c1 (stereo not drawn) | 8.29%
30 | Cc1ccc(OCC(=O)NNC(=O)C2CCN(c3ncnc4sc(C)c(C)c34)CC2)cc1 | -8.85%
31 | CCCCCCSC1=C(C#N)C(c2ccc(O)cc2)CC(=O)N1 (stereo not drawn) | 4.45%
32 | Cc1cccc(-c2cc3nc(C)cc(N4CC(C)CC(C)C4)n3n2)c1 (stereo not drawn) | 14.8%
33 | CCOC(=O)c1sc(NC(=O)CCN2C(=O)c3cccc([N+](=O)[O-])c3C2=O)c(C(=O)OCC)c1C | -0.177%
34 | O=C1CC(c2ccco2)CC(O)=C1C=Nc1cc(Cl)ccc1O (stereo not drawn) | 14.2%
35 | O=C(NCC1CCCO1)C1CC(=O)N(C2CCCCCC2)C1 (stereo not drawn) | 16%
36 | COC(=O)COc1cccc2c(=O)n(CC(=O)NCCc3ccccc3)ccc12 | -0.762%
37 | CC(Oc1ccccc1Br)C(=O)N1CCc2ccccc21 (stereo not drawn) | 2.63%
38 | O=C(Cn1cnc2ccccc2c1=O)Nc1ccc2c(c1)OCO2 | 10%
39 | O=C(NCc1ccc(F)cc1)C(c1ccccc1)N(C(=O)c1csnn1)c1ccccc1 (stereo not drawn) | 14.7%
40 | COc1ccc(C(=O)/C=C/Nc2cc(C)ccn2)cc1 | 11.8%
41 | O=C(c1cccc(S(=O)(=O)N2CCCC2)c1)c1cccc(S(=O)(=O)N2CCCC2)c1 | 3.85%
42 | O=C(Oc1ccccc1C(=S)N1CCOCC1)c1ccccc1 | 12.5%
43 | COc1cc(CNCCN2CCOCC2)ccc1OCc1cccc(Cl)c1.Cl | -14.7%
44 | Cc1c(Cl)cnc(NC(=O)COC(=O)CCc2nc3ccccc3s2)c1Cl | 7.23%

Row | SMILES | hERG current change (%, negative = inhibition) at 1uM
45 | O=c1[nH]c2ccc(Cl)cc2c(-c2ccccc2)c1SC(=S)N1CCOCC1 | 1.71%
46 | CCOCCNC(=O)c1ccccc1C(=O)NCCOCC | -2.45%
47 | CCc1ccc2[nH]c(=O)c(CN(Cc3ccco3)S(=O)(=O)c3ccc4c(c3)OCCO4)cc2c1 | 0.917%
48 | N#CCCn1cc(CNCc2ccccc2)c(-c2cccc([N+](=O)[O-])c2)n1 | 1.32%
49 | Cc1ccc2cc(C)c3nnc(SCC(=O)c4cccs4)n3c2c1C | -0.578%
50 | C[n+]1ccccc1COc1ccc(C(C)(C)C)cc1.Cc1ccc(S(=O)(=O)[O-])cc1 | 8.83%
51 | CNc1c(-n2cc(C(=O)OC)c(C(=O)OC)c2C(=O)OC)c(=O)n(C)c(=O)n1C | 11.5%
52 | CCOC(=O)c1ccc(-c2cccc(C(F)(F)F)c2)nc1C | 12.7%
53 | Cc1ccc(N2C(=O)N(CC(=O)Nc3cccc([N+](=O)[O-])c3C)C(=O)C2C)cc1 (stereo not drawn) | -5.12%
54 | CN(CCOc1ccccc1)CC(=O)Nc1cc([N+](=O)[O-])ccc1Cl | 14.5%
55 | C=CCNCCCCOc1ccc(Br)cc1C.O=C(O)C(=O)O | -10.4%
56 | CCOC(=O)N1CCN(C(=O)CCc2c(C)nc3c(c(C)nn3-c3ccc(C)c(C)c3)c2C)CC1 | -3.47%
57 | O=C(NCC1CCCO1)c1ccccc1 (stereo not drawn) | 12.2%
58 | CC(=O)Nc1ccc(Br)c2ccccc12 | 9.64%
59 | CCC1CCCCN1C(=O)CSc1nnc(-c2ccc3c(c2)OCCO3)o1 (stereo not drawn) | -4.29%
60 | CC/C(C)=N/Oc1nc(C)cc(C)n1 | 15.8%
61 | O=c1cc(N2CCOCC2)c2ccccc2o1 | 1.41%
62 | COc1ccc(NC(=O)CN(C)C(=O)/C=C/c2cn(-c3ccccc3)nc2-c2cccs2)cc1 | 3.2%
63 | Cc1cc(C)c(NC(=O)CSc2nccn2C)c(C)c1 | 25.7%
64 | NC(=NCCc1ccccc1)NS(=O)(=O)c1ccccc1F | 11.7%
65 | Cc1ccc(-n2ncc3c2CCCC3NC(=O)c2ocnc2C)cc1C (stereo not drawn) | 10.4%
66 | CC(C)CC(OC(=O)CC1Sc2ccccc2NC1=O)C(=O)NC1CCCC1 (stereo not drawn) | 9.73%

Row | SMILES | hERG current change (%, negative = inhibition) at 1uM
67 | Cc1cccc(N2CCN(C(=O)COc3ccc4c(c3)CCC4)CC2)c1C | -2.76%
68 | COCCCn1c(=O)/c(=C\c2ccccc2OC(F)F)s/c1=C(/C#N)C(=O)NC(C)C | 2.11%
69 | COC(CNc1cc(=O)oc2ccccc12)OC | 10.5%
70 | COc1cccc(-n2c(SCc3ccccn3)nc3c(c2=O)SCC3)c1 | -4.24%
71 | COc1ccc(C2CC(c3cccs3)=NN2C(=O)CSc2nncn2C)cc1OC (stereo not drawn) | 12.2%
72 | Cc1c(C(=O)c2ccccc2)c2ccccc2n1C | 9.56%
73 | CCS(=O)(=O)Nc1cccc(C2=NN(S(=O)(=O)CC)C(c3cccs3)C2)c1 (stereo not drawn) | 14.9%
74 | CC1=C(C(=O)Nc2cccnc2)C(c2cccnc2)n2ncnc2N1 (stereo not drawn) | -0.626%
75 | O=C(Nc1ccc(F)c(F)c1)c1ccco1 | 9%
76 | Cc1cc(=O)oc(C)c1C(=O)NCCc1ccccc1 | 16%
77 | CCC1Sc2ccc(S(=O)(=O)CCC(=O)Nc3cccc(Br)c3)cc2NC1=O (stereo not drawn) | 15%
78 | COc1ccc(OC(=O)c2ccncc2)cc1 | 4.76%
79 | O=C(CCC(=O)NNc1nc2ccccc2c2nc(-c3ccccc3)nn12)NCCCN1CCCC1=O | 10.8%
80 | O=S(=O)(/N=C(\c1ccccc1)N1CCOCC1)c1cccs1 | 14.3%
81 | CCNC(=O)c1cc2c(=O)n3cccc(C)c3nc2n(CCc2ccccc2)c1=N | -90.7%
82 | CCCc1cc(=O)[nH]c(NCCc2ccccc2)n1 | 16%
83 | CCOC(=O)C1Nc2c(F)cc(C)cc2C2c3ccccc3CC12 (stereo not drawn) | 7.94%
84 | CCc1ccc(NC(=O)Cc2ccc(-n3cccc3)cc2)cc1 | 7.74%
85 | COc1cc(CN2CCN(Cc3cccc(OC)c3OC)CC2)cc(OC)c1 | 2.43%
86 | COCCCN1C(=O)c2ccc(C(=O)OCC(=O)N(C)c3ccccc3)cc2C1=O | 8.71%
87 | CC(NC(=O)COC(=O)c1cn(-c2ccccc2)nc1-c1cccs1)c1ccccc1 (stereo not drawn) | 4.15%
